From PubChem BioAssay AID602332 (National Center for Advancing Translational Sciences (NCATS), 2012)
The whole screen tested about 420,000 compounds, of which about 75 (0.02%) were called active. This list was built around the results that the source calls inconclusive (neither active nor inactive); the mix of calls is not that of the screen. Calls follow the shape of the dose curve; as a rule, active = well fitted activation curve with a large enough effect; inconclusive = small, poorly fitted or top-dose-only effect; inactive = no such curve, though single readings can be large or run the other way. A potency beside an inconclusive call is a rough fit, not a confirmed value.
Potency is read from the fitted curve at half-maximal effect; tags tell the direction and shape of the fitted curve.

Test: qHTS for Inducers of the Endoplasmic Reticulum Stress Response (ERSR) in Human Glioma: qHTS; also: nearly all actives have a fitted effect of over 35% in size; as to activation: % of control where 0% means no effect
Conditions: U87-MG GRP78 promoter luciferase reporter, 16 h; activation: stronger effect = higher value
How it was run: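 Stably transfected U87-MG human glioma cells carrying a GRP78-based luminescent sensor were seeded at 1000 cells/well, pin-dosed with compounds and incubated 16 h. Luciferase reagent was then added, and end-point luminescence was read after 10 min at room temperature.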
For `CCOC(=O)Cn1c(=O)oc2cc(S(=O)(=O)Nc3cc(OC)cc(OC)c3)ccc21`, the Potency was inconclusive: 28.2 µM [activator, single point].
With `Cc1ccc(S(=O)(=O)N2CCC(=O)N(C(COCc3cccc(C(F)(F)F)c3)Cc3ccccc3)CC2)cc1` (configuration not stated) the Potency was inconclusive: 14.1 µM [activator, single point].
With `COc1cc2c(cc1OC)CN(C(=O)c1ccc([N+](=O)[O-])o1)CC2` the Potency was inconclusive: 31.6 µM [activator, partial curve, poor fit].
In the case of `CN(C)/N=C/C=C1\CCC/C(=C\c2ccc(F)c(F)c2)C1=O`, the Potency is reported as inconclusive: 14.1 µM [activator, single point].
In the case of `C#CCn1cc(/C=N/Nc2nc3ccccc3[nH]2)c2ccccc21`, the Potency is reported as inconclusive: 44.7 µM [activator, partial curve, poor fit].
In the case of `CCCCN1C(=O)c2[nH]nc(-c3ccccc3O)c2C1c1cccc(OCc2ccccc2)c1` (configuration not stated), the Potency is reported as inconclusive: 10 µM [activator, partial curve, poor fit].
In the case of `N#CCc1ccc(OC(=O)c2cccnc2Cl)cc1`, the Potency is reported as inconclusive: 50.1 µM [activator, partial curve, poor fit].
With `CC(=O)c1cc(O)c2ccccc2c1O` the Potency was inconclusive: 39.8 µM [activator, partial curve, poor fit].
In the case of `COc1ccc(/C=C/C(=O)c2ccc(NC(=O)c3cccs3)cc2)cc1OC`, the Potency is reported as inconclusive: 12.6 µM [activator, single point].
For `Cc1ccc(OCCn2c(Br)nc3c2c(=O)n(C)c(=O)n3C)cc1`, the activation was inactive: -3.4%.
In the case of `O=C(Nc1nc(-c2ccccn2)cs1)c1ccc(-c2ccccc2F)o1`, the Potency is reported as active: 31.6 µM.
With `O=C1NC(=O)/C(=C/c2ccc(-c3cc(C(=O)O)ccc3Cl)o2)S1` the activation was inactive: -5%.
In the case of `O=C(/C=C\c1ccc(-c2ccccc2)o1)c1ccccc1`, the activation is reported as inactive: 2.31%.
For `Cc1ccc(N=Cc2nc(-c3ccco3)oc2O)cc1`, the Potency was inconclusive: 12.6 µM [activator, single point].
In the case of `CC1=NN(c2ccccc2)C(=O)/C1=C/c1c(O)n(-c2ccc(F)cc2)[nH]c1=O`, the Potency is reported as inconclusive: 56.2 µM [activator, partial curve, poor fit].
In the case of `C[C@@]12CCC=C[C@H]1[C@H](c1ccc3ccccc3c1Br)N(Cc1ccccc1)C2=O`, the Potency is reported as inconclusive: 50.1 µM [activator, single point].
With `CCOc1ccc(-c2cc3nc(C4CCN(C(=O)OC(C)(C)C)CC4)c(C(=O)Nc4ccc(C)c(F)c4)cn3n2)cc1` the Potency was inconclusive: 35.5 µM [activator, partial curve, poor fit].
